Experimental data taken from the supplement of paper PMC12632987.
Whole data set: some 2,300 sequences, median “median log2 fold change of GCK-ALFA target abundance (FLAG IP / Myc IP barcode read proportion)” near 0.095, cut for the lowest 2% near -0.47. The list shows a part of the results.

B1: LC3A_127_193 (protein)
chain: KLKEVLEKLIELARKAAELLEDPNADPEEIKKLLEEALKAAKEAVELDPSTQPILDDVEQAKKLFEQYLAASPEEQEALREQLILLLDGIEIEAESKLLK
B2: LC3A_28_946 (protein)
chain: MTVEEQAKAALEEAKKAAEKKEPTVITLTVKGTDTQEEVDLVIDTMKEIAELLKDIKGSAIIVNVEAGVPQEVVDKLADTGEEIEKKYPNINVIIALDEE
B3: LC3A_28_1039 (protein)
chain: SALEKDAEAALKEAEEQLAKGDEAVVTLTVKDTPTEEAVAVVTDFLKRLIELSKKYGNKKIHVVIDYDGDQETLDAIIAAAEEAEAANPNLTVIVAYNDK
B4: LC3A_45_1946 (protein)
chain: MAEATVLVLVPEELFDETLAVLREATEEISKEKGLEAEIDEEAVEEAREEAKREGEALLEVTVYSDDEQKALDAAVEIADRIEEKMGPKVAVAIAIKEIP
B5: LC3A_132_278 (protein)
chain: EEKEKEKAIKEIKELAEKAKKNIKDPEKVKKLLEELRKLLEEIEKTKSPEVAAAAAEEAERELLELSRELEKAGLEDLALEADSLAIEAASLAIRAKKKI
B6: LC3A_74_2070 (protein)
chain: KLTVEEIDRLEELAARLLALIILGEERGLFSEEEVERARELRDRLLEVLRRNGALTEAVEGGIELEAEGLALRLEKDPEEARRLLEETFEEAERLLARVE
B7: LC3A_28_1043 (protein)
chain: NELEKNAEEAIKEAEEQFKKGEEAVVTLKVPKIDTETAKKIVSETLERLIELSKKYGNKKVSVVIDFDGDQETLDAILDVAEEAEKKDPNLTVIVAYDPE
B8: LC3A_free_39_2234 (protein)
chain: SMEEIEKLIKEVAKEGGIDYEYVKSKMKEIQEVGGLSDEQMLELVKALLEAVKEGADAKEILDEILALTKELKAAGKSPEEILEALLETIRDYRNLVPLD

Each binder was assayed against MAP1LC3A, Q9H492 (assay: median log2 fold change of GCK-ALFA target abundance (FLAG IP / Myc IP barcode read proportion) (log2 ratio); each designed protein is fused to an ALFA-tag nanobody in HEK293 cells to bring the named protein to FLAG-tagged glucokinase (GCK); Myc marks an untargeted standard; higher = target protein stabilised (more abundant)). Conditions: target protein: 3xFLAG-MCP-GCK-ALFA reporter; HEK293 landing pad (RPLP).
Outline: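 HEK293 landing-pad cells received a recombined binder library fused to the ALFA nanobody and were induced with 2 μg mL^−1 doxycycline, then transfected with a plasmid encoding a FLAG-tagged target and a Myc-tagged standard. Lysates were collected after 48 h for anti-FLAG and anti-Myc immunoprecipitation, and the circular RNA barcodes were reverse transcribed, amplified and sequenced. Target abundance for each binder is the median log2 ratio of FLAG to Myc barcode read proportions. Barcodes had to reach a proportion of at least 10^−7 in both replicates, each binder needed at least 3 barcodes per replicate, a pseudocount of 10^−6 was applied, and the two replicates were pooled.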

Binder	median log2 fold change
B1	0.219
B2	0.248
B3	-0.13
B4	0.308
B5	0.34
B6	-0.112
B7	-0.11
B8	0.245
